# According to the supplement of paper PMC12217912:
# The list shows a part of the results. The full chains were built here from the parent and the listed change. Values near 0.05 are background.
# B1: TEV protease; numbered along this chain (parent)
# chain: MGESLFKGPRDYNPISSSICHLTNESDGHTTSLYGIGFGPFIITNKHLFRRNNGTLVVQSLHGVFKVKDTTTLQQHLVDGRDMIIIRMPKDFPPFPQKLKFREPQREERICLVTTNFQTKSMSSMVSDTSCTFPSGDGIFWKHWIQTKDGQCGSPLVSTRDGFIVGIHSASNFTNTNNYFTSVPKNFMELLTNQEAQQWVSGWRLNADSVLWGGHKVFMVKPEEPFQPVKEATQL
# Variants of: B1
# Assay: raw area under fraction-flipped curve 0-4 h after induction (AUC4h, not background-subtracted), DNA-recorder readout of cleavage of the substrate (dimensionless); higher = more cleavage of the substrate by the protease variant
# Settings: temperature: 34 °C; time window: 0-4 h after rhamnose induction
# Method: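 In vivo DNA recorder in E. coli TOP10(DE3) ΔrhaA at 34 °C. Each TEVp single-site mutant (parent TEVp 0) is paired with a single-site variant of the 7-mer TEVs (canonical ENLYFQ|S). The substrate sits between flexible linkers in a Bxb1-sfGFP-TEVs-SsrA fusion, so cleavage stabilises Bxb1 and speeds flipping of a recombination array, read by NGS. The value is the raw area under the fraction-flipped curve over 0-4 h after rhamnose induction (AUC4h), with ≥20 reads per time point. It is not background-subtracted; inactive controls average about 0.047.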
# 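Note: Bxb1 expression induced with 0.2% (w/v) L-rhamnose at OD600 near 0.5, cultures sampled hourly, flipped fraction per protease–substrate barcode pair counted by paired-end Illumina sequencing.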
Variant,area with substrate ENLYFAS,area with substrate ENLYFES,area with substrate ENLYFFS,area with substrate ENLYFHS,area with substrate ENLYFIS,area with substrate ENLYFKS,area with substrate ENLYFNS,area with substrate ENLYFPS,area with substrate ENLYFVS,area with substrate ENLYFWS
K100D,0.0581,0.074,0.071,0.067,0.0525,0.0742,0.0549,0.0787,0.0727,0.0584
K100Q,0.0477,,0.0587,0.0493,0.0843,0.0631,,0.0677,,
F101E,0.0458,0.055,,,0.0409,,0.0424,,,
F101H,0.0463,,,,,0.0591,0.0328,0.0511,,0.0397
F101I,0.0379,,,,0.0526,,,,0.0582,
R102N,0.0454,,,,,,,0.0631,,
E103D,0.0711,,,0.0618,0.0525,0.0611,0.0628,0.0561,,0.0071
E103I,0.0596,0.0367,,,0.0543,,0.0632,0.0517,0.0571,0.0647
E103M,0.0517,0.0484,0.0684,,0.0588,0.0498,0.0671,0.0457,,
E103S,0.0454,,,,0.0515,,0.0443,0.0589,,
R109T,0.0618,,0.0893,,0.0566,,,0.0621,0.0467,
I110F,0.057,,0.0809,0.0686,0.0444,0.0529,0.0642,0.0601,0.0546,
V113W,0.0617,,,,0.058,,0.064,0.0786,0.0633,
T114L,0.0582,0.0754,,,0.0549,,0.0786,0.0645,,
T115K,0.0646,0.0638,0.0672,,0.0555,0.0779,0.0654,0.061,0.0481,0.0647
T115Q,0.0475,0.0629,0.0691,0.0591,0.0434,0.0648,0.0482,0.0548,0.0521,0.0667
T115R,0.0382,0.0694,0.0709,0.0703,0.0494,,,0.0632,,
N116V,0.0618,0.0644,,,0.0431,0.0648,,0.0583,0.051,0.0561

Variant,area with substrate ENLYFAS,area with substrate ENLYFES,area with substrate ENLYFFS,area with substrate ENLYFHS,area with substrate ENLYFIS,area with substrate ENLYFKS,area with substrate ENLYFNS,area with substrate ENLYFPS,area with substrate ENLYFVS,area with substrate ENLYFWS
Q118C,0.0684,,,,0.0663,,,0.0576,,
Q118L,0.0601,0.0585,0.057,0.0548,0.0734,,,,0.0102,
Q118W,0.0507,0.0562,,,0.0668,0.0551,,0.0551,0.0535,0.0549
S121F,0.0574,,0.0634,,0.0535,0.053,,0.0661,0.0558,
S124C,0.0613,,,0.0568,0.0569,,0.0645,0.067,0.035,
S124G,0.0687,0.054,0.0696,,0.0367,0.0825,0.0464,0.0705,,
S124Y,0.0615,,0.0416,,0.0531,,,,,
D128T,0.0483,,0.0784,0.0679,,0.067,,,,
T129K,0.0582,,0.0831,0.059,0.0766,,,,0.0469,
C131K,0.0381,,,,0.0436,0.0571,,0.0604,,0.0693
S135H,0.0565,0.0733,0.0729,,0.0435,0.0606,0.0627,0.0709,,
D137Q,0.0059,,,,0.057,,,0.0582,,0.0579
D137S,0.0598,,,,0.0488,0.0562,,,,
D137T,0.0334,,0.086,,0.047,0.0394,,,0.0477,
G138L,0.0499,,0.0867,,0.0585,,0.0614,,0.0387,
G138T,0.0852,0.0638,,,,,,,,
G138Y,0.0401,0.0405,,,0.0584,,0.0632,,,

# Same assay, conditions: temperature: 34 °C; time window: 0-4 h after rhamnose induction
Variant,area with substrate ENLYFYS,area with substrate ENLYFMS,area with substrate ENLYFGS,area with substrate ENLYFSS,area with substrate ENLYFTS,area with substrate ENLYFCS,area with substrate ENLYFRS,area with substrate ENLYFDS,area with substrate ENLYFLS
K100D,0.0632,,,,,,,,
K100Q,0.056,0.0719,,,,,,,
F101E,,,0.0464,0.0417,0.0489,,,,
F101H,0.0475,0.0511,0.0606,,0.0408,0.0451,,,
F101I,,,,,,,0.0347,,
R102N,,,,0.0592,,,,,
E103D,,0.0646,,,,,0.0607,0.0623,0.0936
E103I,0.0557,0.0726,,0.0553,0.067,0.0594,,,0.0627
E103M,0.0591,0.0545,,0.0588,0.0522,,,0.0692,
E103S,,,,,,,0.0442,,
R109T,0.061,0.0459,0.0376,0.0607,0.0581,,,,
I110F,0.0566,0.051,0.0555,0.0743,0.0365,0.0557,,,0.0315
V113W,0.0609,,,0.0533,0.0617,0.0505,0.067,,
T114L,0.0506,0.0582,,0.0621,,0.0562,,0.0672,0.0452
T115K,,0.0681,0.063,0.072,0.0541,,0.0674,0.0533,0.0563
T115Q,,0.0663,,0.057,0.0645,0.0577,,0.0528,
T115R,,0.0821,0.0697,,,,0.0637,0.0894,0.0456

Variant,area with substrate ENLYFYS,area with substrate ENLYFMS,area with substrate ENLYFGS,area with substrate ENLYFSS,area with substrate ENLYFTS,area with substrate ENLYFCS,area with substrate ENLYFRS,area with substrate ENLYFDS,area with substrate ENLYFLS
N116V,0.046,0.0446,,,,0.0623,,0.067,
Q118C,0.0472,,,,,,,,
Q118L,0.0496,0.0595,,,0.0432,,,,
Q118W,0.0446,0.071,0.0561,,0.0651,0.0545,,,0.0542
S121F,,0.0659,0.0317,0.0301,,,0.06,,0.0379
S124C,0.0598,,0.0369,0.058,,,0.0595,,
S124G,,0.0658,0.0611,,,,0.0454,0.0656,
S124Y,0.0729,,,0.0614,,0.0227,0.0394,0.0602,
D128T,0.058,,,,0.0561,,,0.0681,
T129K,,0.0625,0.0587,0.062,0.0596,0.0641,,0.027,
C131K,,,,,,,0.0541,0.0543,
S135H,,,0.0643,0.0569,,0.0477,0.0595,0.0671,0.0624
D137Q,,,,0.0675,0.0669,,,0.0589,0.0715
D137S,0.0593,,0.0473,,0.0685,0.0463,,,
D137T,,0.075,,0.0511,0.0549,0.0464,0.0697,,
G138L,,0.0626,,0.0545,,,,,
G138Y,,0.0627,,,,,,,
